Where “and” joins values, the source holds several entries; their conditions need not be identical. Identical values can stand only once. Out of some 220,000 compounds screened, about 16,000 (7.3%) were called active. Inconclusive means that the source gave no clear call. Such entries were picked first, then a sample of the others. Calls follow the shape of the dose curve; as a rule, active = well fitted inhibition curve with a large enough effect (not every such curve was filed as active); inconclusive = small, poorly fitted or top-dose-only effect, or another doubt; inactive = no such curve, though single readings can be large or run the other way. Potencies of inconclusive entries are left out as doubtful fits. Some compounds were tested as several samples or in several runs, with calls that do not always agree.
Each compound was assayed against Aldehyde dehydrogenase 1A1 (Homo sapiens) (UniProt P00352) (assay: qHTS Assay for Inhibitors of Aldehyde Dehydrogenase 1 (ALDH1A1)). Conditions: Purified ALDH1A1, NADH fluorescence, propionaldehyde substrate; series mostly up to 75.3 µM.
UniProt P00352, sequence (P00352 whole entry, looked up): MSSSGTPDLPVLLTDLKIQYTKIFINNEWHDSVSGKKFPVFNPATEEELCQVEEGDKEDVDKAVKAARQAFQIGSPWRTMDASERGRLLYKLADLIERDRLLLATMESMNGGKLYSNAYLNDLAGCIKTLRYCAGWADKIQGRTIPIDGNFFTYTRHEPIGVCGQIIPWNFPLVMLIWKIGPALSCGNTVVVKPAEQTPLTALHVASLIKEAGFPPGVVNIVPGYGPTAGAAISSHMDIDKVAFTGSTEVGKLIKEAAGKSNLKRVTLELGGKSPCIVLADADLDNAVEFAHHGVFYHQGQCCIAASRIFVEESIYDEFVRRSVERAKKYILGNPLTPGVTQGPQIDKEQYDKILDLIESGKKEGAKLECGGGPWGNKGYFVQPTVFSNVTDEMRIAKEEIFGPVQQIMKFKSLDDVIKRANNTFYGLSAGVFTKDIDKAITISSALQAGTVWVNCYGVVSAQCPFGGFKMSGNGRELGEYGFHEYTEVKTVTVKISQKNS
With `C=C(CO)CC1CC(O)[C@]2(C)OC3CC4OC5C[C@]6(C)O[C@]7(C)CCC8OC9C[C@]%10(C)OC%11C(C)=CC(=O)OC%11CC%10OC9C[C@@H](C)C8OC7CC6O[C@]5(C)C/C=C\C4OC3CC2O1` (stereo partly drawn) the Potency was active: 1.41 µM.
For `CCOP(=O)(OCC)c1nc(-c2ccc(Cl)cc2)oc1NCc1ccccc1`, the Potency was inconclusive [inhibitor, partial curve].
With `NC(Cc1ccc(N(CCCl)CCCl)cc1)C(=O)O` (stereo not drawn) the Potency was active: 31.6 µM.
In the case of `COc1ccc(CCn2c(O)c(C=NCc3ccc4c(c3)OCO4)c(=O)[nH]c2=O)cc1OC`, the Potency is reported as active: 5.01 µM.
In the case of `C/C=C1/CN2CC[C@]34C(=C(C=O)[C@H]1C[C@@H]23)Nc1ccccc14`, the Potency is reported as “inactive”.
In the case of `CC(=O)N1CCN(c2ccc(OC[C@@H]3CO[C@@](Cn4ccnc4)(c4ccc(Cl)cc4Cl)O3)cc2)CC1`, the Potency is reported as “inactive”.
For `C=CCn1c(O)c(/C(CC)=N/NC(=S)Nc2ccccc2)c(=O)[nH]c1=O`, the Potency was active: 17.8 µM.
With `O=C(CCS(=O)NCc1ccccc1)NCc1ccccc1` (stereo not drawn) the Potency was inconclusive [inhibitor, single point].
With `Nc1ccnn1C1CCNCC1` the Potency was inconclusive [inhibitor, single point].
For `Brc1ccccc1`, the Potency was inconclusive [inhibitor, single point].
For `CNC(=O)Oc1cccc(-c2cn3cc(OC(=O)NC)ccc3n2)c1`, the Potency was inconclusive [inhibitor, partial curve].
With `Nc1c(C(=O)OCC2CCCO2)c2nc3ccccc3nc2n1Cc1cccs1` (stereo not drawn) the Potency was inconclusive [inhibitor, partial curve].
With `CC(=O)Nc1ccc(N=Cc2c(O)n(Cc3ccco3)c(=O)[nH]c2=O)cc1` the Potency was active: 9.46 µM.
For `CN1CCN(S(=O)(=O)c2cnc(Cl)c(Br)c2)CC1`, the Potency was active: 2.51 µM.
With `COC(=O)c1ccc(C(=O)OC)c(NC(=O)Oc2ccccc2)c1` the Potency was inconclusive [inhibitor, partial curve].
`CN(C)c1ccccc1` was tested, and the Potency was “inactive”.
`CCN(CCCl)Cc1ccccc1Br` was tested, and the Potency was “inactive”.
With `N#Cc1ccccc1Cn1cc(C(=O)c2cccs2)c2ccccc21` the Potency was inconclusive [inhibitor, single point].
For `c1ccc2nc3ccccc3cc2c1`, the Potency was inconclusive [inhibitor, single point].
With `C[C@@H]1C[C@@H]2O[C@H]2/C=C\C=C\C(=O)Cc2c(Cl)c(O)cc(O)c2C(=O)O1` the Potency was “inactive”.
`Cc1cccc(OCC(=O)N2CCN(Cc3ccc4c(c3)OCO4)CC2)c1` was tested, and the Potency was inconclusive [inhibitor, single point].
With `COc1ccc(Br)cc1CN1CCN(C(=O)Cc2ccccc2)CC1` the Potency was inconclusive [inhibitor, partial curve].
`CCCCN1C(=O)/C(=C/c2ccc(N3CCCCCC3)cc2)C(=O)NC1=S` was tested, and the Potency was active: 0.199 µM.
`COc1cccc(C(=O)C2CCCN(C3CCOCC3)C2)c1` (stereo not drawn) was tested, and the Potency was “inactive”.
In the case of `CCN(CC)C(=O)N[C@@H]1C=C2c3cccc4[nH]cc(c34)C[C@H]2N(C)C1`, the Potency is reported as inconclusive [inhibitor, partial curve].
`C[C@H]1O[C@H]1P(=O)(O)O` was tested, and the Potency was “inactive”.
In the case of `Nc1ccc(N2CCN(Cc3ccccc3Cl)CC2)c(Cl)c1`, the Potency is reported as inconclusive [inhibitor, partial curve].
`O=C(CNC(=O)OCc1ccccc1)Nc1ccc(Br)cc1C(=O)c1ccccc1Cl` was tested, and the Potency was “inactive”.
With `CCOc1ccc(CC2C(=O)NC(=O)N(c3ccc(CC)cc3)C2=O)cc1` (stereo not drawn) the Potency was active: 22.4 µM.
With `COc1ccc2[nH]c3c(c2c1)CCNC3C` (stereo not drawn) the Potency was inconclusive [inhibitor, single point].
In the case of `Cc1cc(S(=O)(=O)NC(C)C)ccc1OCC(=O)N1CCN(Cc2ccc3c(c2)OCO3)CC1`, the Potency is reported as “inactive”.
For `Cc1cccc(CS(=O)(=O)Cc2ccc(C(=O)N3CCC4(CC3)OCCO4)o2)c1`, the Potency was active: 25.1 µM.
For `c1cnc(N2CCCC3(CCNCC3)C2)nc1`, the Potency was inconclusive [inhibitor, single point].
For `CN1C(=O)C(=Cc2ccccc2OCCOc2ccc([N+](=O)[O-])cc2)C(=O)N(C)C1=O`, the Potency was active: 3.55 µM.
`CCOC(=O)C1CCCN(c2ccc([N+](=O)[O-])c3nonc23)C1` (stereo not drawn) was tested, and the Potency was inconclusive [inhibitor, single point].
For `O=c1c(C=Nc2cccnc2Cl)c(O)n(CCCCl)c(=O)n1C1CCCCC1`, the Potency was inconclusive [inhibitor, single point].
`COCCCNC(=O)c1c(NC(=O)c2ccccc2Cl)n(Cc2ccccc2)c2nc3ccccc3nc12` was tested, and the Potency was inconclusive [inhibitor, partial curve].
`O=C1/C(=C/c2cc([N+](=O)[O-])ccc2Cl)N2CCC1CC2` was tested, and the Potency was inconclusive [inhibitor, single point].
In the case of `C/C(Cl)=C/CC1(CN2CCCC2=O)C(=O)NC(=O)NC1=O`, the Potency is reported as “inactive”.
In the case of `Cn1c(O)c(C=Nc2ccc(Cl)cc2)c(=O)n(C)c1=O`, the Potency is reported as inconclusive [inhibitor, single point].
For `Nc1ccc(Cc2ccc(N)cc2)cc1`, the Potency was inconclusive [inhibitor, single point].
In the case of `COC(=O)[C@@H]1c2cc3c(c(O)c2[C@@H](O)C[C@]1(C)O)C(=O)c1c(O)cc2c(c1C3=O)O[C@H]1O[C@@]2(C)[C@@H](O)[C@H](N(C)C)[C@H]1O`, the Potency is reported as inconclusive [inhibitor, partial curve].
With `CCN1C(=O)NC(=O)/C(=C\c2ccc(N3CCOCC3)cc2OC)C1=O` the Potency was inconclusive [inhibitor, partial curve, poor fit].
`O=C(O)CCC(=O)NNC(=O)COc1ccc2ccccc2c1Br` was tested, and the Potency was inconclusive [inhibitor, single point].
With `CNC(=S)N(C)CCc1cc2c(c(OC)c1C=C1C(=O)NC(=O)NC1=O)OCO2` the Potency was inconclusive [inhibitor, single point].
With `CC(N)(COP(=O)(O)Oc1ccccc1)C(=O)O` (stereo not drawn) the Potency was inconclusive [inhibitor, single point].
For `C=CCC1C(=O)NC(=S)NC1=O`, the Potency was inconclusive [inhibitor, single point].
`O=c1[nH]c(=O)n(CCC2=CCCCC2)c(O)c1C=NCCN1CCNCC1` was tested, and the Potency was active: 14.1 µM.
For `Cc1ccc(S(=O)(=O)NCC(=O)OCC(=O)N2N=C(c3ccc(Cl)cc3)CC2c2ccco2)cc1C` (stereo not drawn), the Potency was inconclusive [inhibitor, single point].
For `O=C1NC(=O)N(c2ccccc2)C(=O)/C1=C/c1ccc2c(c1)Cc1ccccc1-2`, the Potency was inconclusive [inhibitor, partial curve].
`Cc1cccc(-n2c(O)c(C=Nc3ccc(Br)cn3)c(=O)[nH]c2=O)c1` was tested, and the Potency was inconclusive [inhibitor, single point].
`CC(C)OS(C)(=O)=O` was tested, and the Potency was inconclusive [inhibitor, single point].
In the case of `O=C(COC(=O)Cc1ccccc1)Nc1ccc(F)cc1`, the Potency is reported as “inactive”.
In the case of `CC(=O)c1ccc(Oc2ccc(C(=O)c3ccc(C)c(C)c3)cc2[N+](=O)[O-])cc1`, the Potency is reported as active: 0.794 µM.
For `C=CCn1c(O)c(C(CC)=NCCC2=CCCCC2)c(=O)[nH]c1=O`, the Potency was inconclusive [inhibitor, single point].
`CC[N+](=O)[O-]` was tested, and the Potency was “inactive”.
For `NC(=O)c1cccn(Cc2ccc(C(F)(F)F)cc2)c1=O`, the Potency was inconclusive [inhibitor, single point].
For `CCCCCn1c(N)c(C(=O)NCCN2CCOCC2)c2nc3ccccc3nc21`, the Potency was inconclusive [inhibitor, partial curve].
For `O=C1CN=C(c2ccccc2)c2oc3ccc(Br)cc3c2N1`, the Potency was “inactive”.
In the case of `O=c1c(O)c(-c2ccc(O)c(O)c2)oc2cc(O)cc(O)c12`, the Potency is reported as “inactive and active: 12.6 µM”.
`O=C(N/N=C/c1c(O)n(-c2ccccc2)c(=O)[nH]c1=O)c1ccncc1` was tested, and the Potency was inconclusive [inhibitor, partial curve].
`C=C(CC1(C(C)NP(=O)(c2ccccc2)c2ccccc2)CC1)c1ccccc1` (stereo not drawn) was tested, and the Potency was “inactive”.
With `CCn1c(O)c(C(c2ccccn2)c2c(O)n(CC)c(=S)[nH]c2=O)c(=O)[nH]c1=S` the Potency was active: 25.1 µM.
In the case of `O=c1c2ccccc2nc(/C=C/c2ccc(O)cc2)n1-c1cccc(O)c1`, the Potency is reported as inconclusive [inhibitor, partial curve].
For `O=C(CSc1ccccn1)Nc1cccc2ccccc12`, the Potency was inconclusive [inhibitor, single point].
`N=c1sc2c(n1Cc1ccccc1)CCCC2` was tested, and the Potency was “inactive”.
For `O=C(O)CCn1cc(C=C2C(=O)NC(=S)NC2=O)c(-c2cccc(Br)c2)n1`, the Potency was active: 10 µM.
In the case of `ON1C2CCCCC2N(O)C1c1ccccc1` (stereo not drawn), the Potency is reported as inconclusive [inhibitor, single point].
For `Cc1cscn1`, the Potency was inconclusive [inhibitor, single point].
With `Cn1c(O)c(N=Nc2ccc(S(=O)(=O)N3CCOCC3)cc2)c(=O)n(C)c1=O` the Potency was “inactive”.
For `CCOP(=S)(OCC)Oc1cc(C)nc(C(C)C)n1`, the Potency was inconclusive [inhibitor, single point].
With `C[C@]12CCC3C(CC[C@]4(O)CC(O)CC[C@@]34C=O)[C@]1(O)CCC2C1=CC(=O)OC1` (stereo partly drawn) the Potency was “inactive”.
In the case of `CCCCn1c(=O)c(C=Nc2ccc(Cl)cc2)c(O)n(Cc2ccco2)c1=O`, the Potency is reported as inconclusive [inhibitor, partial curve].
Potency is read from the fitted curve at half-maximal effect; tags tell the direction and shape of the fitted curve.
